# Laboratory results reported in the RNAGym collection of RNA variant scans (doi:10.1073/pnas.2313332121).
# Variants at the floor of the assay are shown more often than the library holds them.
# B1: TPR 5TU (parent)
# chain: GGAUCUUCUCGAUCUAACAAAAAAGACAAAUCUGCCACAAAGCUUGAGAGCAUCUUCGGAUGCAGAGGCGGCAGCCUUCGGUGGCGCGAUAGCGCCAACGUUCUCAACUAUGACACGCAAAACGCGUGCUCCGUUGAAUGGAGUUUAUCAUG
# Variants of: B1
# Assay: polymerase ribozyme fitness, log enrichment relative to wild type (log ratio); higher = more active; in vitro selection for triplet polymerase activity
# Summary of the method: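 After PCR construction and transcription, each subunit's mutant library from a heterodimeric triplet polymerase ribozyme was annealed with a biotinylated primer, the partner subunit and triplets. Incubation was frozen, at −7 °C, and extended constructs were gel-excised, bound to streptavidin beads and amplified by RT-PCR, in one selection round done in triplicate. Fitness is the logarithm of a genotype's enrichment divided by that of the wild type, from inverse-variance-weighted replicate averages of Illumina-sequenced inputs and outputs. The base of the logarithm is 2, and genotypes needed ≥10 input reads and ≥1 read per output.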
row,Variant,polymerase ribozyme fitness (log ratio)
1,GGAUCUUCUCGAUCUAACAAAAAAGACAAAUCUGCCACAAAGCUUGAGAGCAUCUUCGGAUGCAGAGGCGGCAGCCUUCGGUGGGGUGAUAGCGCCAACGUUCUCUACUAUGACACACAAAACGCGUGCUCCGUUGACUGGAGUUUAUCAUU [C85G C87U A106U G117A A138C G152U],≤ -4.2
2,GGAUCUUCUCGAUCUAACAAAAAAGACAAAUCUGCCACAAAGCUUGAGAGCAUCUUCGGAUGCAGAGGCGGCAGCCUUCGGUGGGGUGAUAGCGCCAACGUUCUCAACUAUGACCCGCAAAACGCGUGCUCCGUUGAAUGGAGUUUAACGUG [C85G C87U A115C U148A A150G],≤ -4.2
3,GGAUCUUCUCGAUCUAACAAAAAAGACAAAUCUGCCACAAAGCUUGAGAGCAUCUUCGGAUGCAGAGGCGGCAGCCUUCGGUGGGGUGAUAGCGCCAACGUUCUCAACUAUGACACGCAAAACGCGUGCUCCGUUGAAUGGAGUAUAUCAUG [C85G C87U U145A],-2.77
4,GGAUCUUCUCGAUCUAACAAAAAAGACAAAUCUGCCACAAAGCUUGAGAGCAUCUUCGGAUGCAGAGGCGGCAGCCUUCGGUGGGGCGAUAGAGCCAACGUUCUCAACUAUGACACGCAAAACGCGUGCUCCGUUGAAUGGAGUUUAUCAUG [C85G C93A],≤ -4.2
5,GGAUCUUCUCGAUCUAACAAAAAAGACAAAUCUGCCACAAAGCUUGAGAGCAUCUUCGGAUGCAGAGGCGGCAGCCUUCGGUGGGGCGAUAGAGCCAACGUUCUCAACUGUGACACGCAAAACGCGUGCUCUGUUGAAUGGAGUUUAUCAUG [C85G C93A A110G C132U],≤ -4.2
6,GGAUCUUCUCGAUCUAACAAAAAAGACAAAUCUGCCACAAAGCUUGAGAGCAUCUUCGGAUGCAGAGGCGGCAGCCUUCGGUGGGGCGAUAGCGACAACGUUCUCAACUAUGACACGCAAAACGCGUGCUCCGUUGAAUGGAGUUUAUCAUG [C85G C95A],-1.68
7,GGAUCUUCUCGAUCUAACAAAAAAGACAAAUCUGCCACAAAGCUUGAGAGCAUCUUCGGAUGCAGAGGCGGCAGCCUUCGGUGGGGCGAUAGCGGCAACGUUCUCAACUUUGACACGCAAAAUGCGUGCUCCGUUGAAUGGAGUUUAUCAUG [C85G C95G A110U C123U],≤ -4.2
8,GGAUCUUCUCGAUCUAACAAAAAAGACAAAUCUGCCACAAAGCUUGAGAGCAUCUUCGGAUGCAGAGGCGGCAGCCUUCGGUGGGGCGAUAGCGGCAACGUUCUCAACUAUGACACUCAAAACGCGUGCUCCGUUGAAUGGACUUUAUCAUG [C85G C95G G117U G143C],≤ -4.2
9,GGAUCUUCUCGAUCUAACAAAAAAGACAAAUCUGCCACAAAGCUUGAGAGCAUCUUCGGAUGCAGAGGCGGCAGCCUUCGGUGGGGCGAUAGCGCAAACGUUCUCUACUAUGACACGAAAAACGCGUUCUCCGUUGAAUGGAGUUUAUCAUG [C85G C96A A106U C118A G128U],≤ -4.2
10,GGAUCUUCUCGAUCUAACAAAAAAGACAAAUCUGCCACAAAGCUUGAGAGCAUCUUCGGAUGCAGAGGCGGCAGCCUUCGGUGGGGCGAUAGCGCAAACGUGCUCAACUAUGACACGCAAAUCGCGUGCUCCGUUGAAUGGAGUUUAUCAUG [C85G C96A U102G A122U],≤ -4.2
11,GGAUCUUCUCGAUCUAACAAAAAAGACAAAUCUGCCACAAAGCUUGAGAGCAUCUUCGGAUGCAGAGGCGGCAGCCUUCGGUGGGGCGAUAGCGCUAACGUUCUCAACUAUGUCACGCAAAACGCGUGCUCCGUUGAAUGGAGUUUAUCAUG [C85G C96U A113U],-3.8
12,GGAUCUUCUCGAUCUAACAAAAAAGACAAAUCUGCCACAAAGCUUGAGAGCAUCUUCGGAUGCAGAGGCGGCAGCCUUCGGUGGGGCGAUAGCGCUAACGUUCUCAACUAUGACAAGCAAAACGCGUGCUCCGUUGCAUGGAGUUUAUCAUG [C85G C96U C116A A137C],≤ -4.2
13,GGAUCUUCUCGAUCUAACAAAAAAGACAAAUCUGCCACAAAGCUUGAGAGCAUCUUCGGAUGCAGAGGCGGCAGCCUUCGGUGGGGCGAUAGCGCCAAGGUUCUCAACUAUGACACGCAAAACGCGUGCUCCGUUGAAUGGAGUUUAUCAUG [C85G C99G],-4.1
14,GGAUCUUCUCGAUCUAACAAAAAAGACAAAUCUGCCACAAAGCUUGAGAGCAUCUUCGGAUGCAGAGGCGGCAGCCUUCGGUGGGGCGAUAGCGCCAAGGUUCUCAACUAUGACACGCAAAACGCGUGCUCCUUUGAAUGGAGUUUAUCAUG [C85G C99G G133U],≤ -4.2
15,GGAUCUUCUCGAUCUAACAAAAAAGACAAAUCUGCCACAAAGCUUGAGAGCAUCUUCGGAUGCAGAGGCGGCAGCCUUCGGUGGGGCGAUAGCGCCAACGUUCUCAACUAUGAGACGCAAAACGCGUGCUCCGUUGAAUGGAGUUUAUCAUG [C85G C114G],-3.8
16,GGAUCUUCUCGAUCUAACAAAAAAGACAAAUCUGCCACAAAGCUUGAGAGCAUCUUCGGAUGCAGAGGCGGCAGCCUUCGGUGGGGCGAUAGCGCCAACGUUCUCAACUAUGACAAGCAAAACGCGUGCUCCGUUGAAUGGAGUUUAUCAUG [C85G C116A],-0.515
17,GGAUCUUCUCGAUCUAACAAAAAAGACAAAUCUGCCACAAAGCUUGAGAGCAUCUUCGGAUGCAGAGGCGGCAGCCUUCGGUGGGGCGAUAGCGCCAACGUUCUCAACUAUGACAUGCAAAACGCGUGCUCCGUUGAAUGGAGUUUAUCAUG [C85G C116U],-1.66
18,GGAUCUUCUCGAUCUAACAAAAAAGACAAAUCUGCCACAAAGCUUGAGAGCAUCUUCGGAUGCAGAGGCGGCAGCCUUCGGUGGGGCGAUAGCGCCAACGUUCUCAACUAUGACACGAAAAACGCGUGCUCCGUUGAAUGGUGUUUAUCAUG [C85G C118A A142U],-2.93
19,GGAUCUUCUCGAUCUAACAAAAAAGACAAAUCUGCCACAAAGCUUGAGAGCAUCUUCGGAUGCAGAGGCGGCAGCCUUCGGUGGGGCGAUAGCGCCAACGUUCUCAACUAUGACACGAAAAACGCAUGCUCCGUUGAAUGGAGUUUAUCAUG [C85G C118A G126A],≤ -4.2

row,Variant,polymerase ribozyme fitness (log ratio)
1,GGAUCUUCUCGAUCUAACAAAAAAGACAAAUCUGCCACAAAGCUUGAGAGCAUCUUCGGAUGCAGAGGCGGCAGCCUUCGGUGGGGCGAUAGCGCCAACGUUCUCAACUAUGACACGGAAAACGCGUGCUCCGUUGAAUGGAGUUUAUCAUG [C85G C118G],-2.62
2,GGAUCUUCUCGAUCUAACAAAAAAGACAAAUCUGCCACAAAGCUUGAGAGCAUCUUCGGAUGCAGAGGCGGCAGCCUUCGGUGGGGCGAUAGCGCCAACGUUCUCAACUAUGACACGCAAAAGGCGUGCUCCGUUGAAAGGAGUUUAUCAUG [C85G C123G U139A],≤ -4.2
3,GGAUCUUCUCGAUCUAACAAAAAAGACAAAUCUGCCACAAAGCUUGAGAGCAUCUUCGGAUGCAGAGGCGGCAGCCUUCGGUGGGGCGAUAGCGCCAACGUUCUCAACUAUGACACGCAAAACGAGUGCUCCGUUGAAUGGAGUUUAUCAUG [C85G C125A],-2.37
4,GGAUCUUCUCGAUCUAACAAAAAAGACAAAUCUGCCACAAAGCUUGAGAGCAUCUUCGGAUGCAGAGGCGGCAGCCUUCGGUGGGGCGAUAGCGCCAACGUUCUCAACUAUGACACGCAAAACGCGUGCUCCGUUGAAUGGAGUUUAUGAUG [C85G C149G],≤ -4.2
5,GGAUCUUCUCGAUCUAACAAAAAAGACAAAUCUGCCACAAAGCUUGAGAGCAUCUUCGGAUGCAGAGGCGGCAGCCUUCGGUGGGGCGAUAGCGCCAACGUUCUCAACUAUGACACGCAAAACGCGUGCUCCGUUGAAUGGAGUUUAUUAUG [C85G C149U],-2.46
6,GGAUCUUCUCGAUCUAACAAAAAAGACAAAUCUGCCACAAAGCUUGAGAGCAUCUUCGGAUGCAGAGGCGGCAGCCUUCGGUGGGCCGAUAGCGCCAACGUUCUCAACUAUGACACGCAAAACGCGUGCUCCGUUGAAUGGAUUUUAUCAUG [C85G G86C G143U],≤ -4.2
7,GGAUCUUCUCGAUCUAACAAAAAAGACAAAUCUGCCACAAAGCUUGAGAGCAUCUUCGGAUGCAGAGGCGGCAGCCUUCGGUGGGGCAAUAGCGCCAACGUUCUCAACUAUGACACGCAAAACGCGUGCUCCGUUGAAUGGAGUUUAUCAUG [C85G G88A],-4.01
8,GGAUCUUCUCGAUCUAACAAAAAAGACAAAUCUGCCACAAAGCUUGAGAGCAUCUUCGGAUGCAGAGGCGGCAGCCUUCGGUGGGGCGAUACCGCCAACGUUCUCAACUAUGACACGCAACACGCGUGCUCUGUUGAAUGGAGUUAAUCAUG [C85G G92C A121C C132U U146A],≤ -4.2
9,GGAUCUUCUCGAUCUAACAAAAAAGACAAAUCUGCCACAAAGCUUGAGAGCAUCUUCGGAUGCAGAGGCGGCAGCCUUCGGUGGGGCGAUAUCGCCAACGUUCUCAACUAUGACACGCAAAACGCGUGCUCCGUUAAAUGAAGUUUAUCAUG [C85G G92U G136A G141A],-3.06
10,GGAUCUUCUCGAUCUAACAAAAAAGACAAAUCUGCCACAAAGCUUGAGAGCAUCUUCGGAUGCAGAGGCGGCAGCCUUCGGUGGGGCGAUAGCGCCAACGUUCUCAACUAUGACACGCAAAACGCGUGCUCCCUUGAAUGGAGUUUAUCAUG [C85G G133C],-2.86
11,GGAUCUUCUCGAUCUAACAAAAAAGACAAAUCUGCCACAAAGCUUGAGAGCAUCUUCGGAUGCAGAGGCGGCAGCCUUCGGUGGGGCGAUAGCGCCAACGUUCUCAACUAUGACACGCAAAACGCGUGCUCCCUCGAAUGGAGUUUAUCAUG [C85G G133C U135C],≤ -4.2
12,GGAUCUUCUCGAUCUAACAAAAAAGACAAAUCUGCCACAAAGCUUGAGAGCAUCUUCGGAUGCAGAGGCGGCAGCCUUCGGUGGGGCGAUAGCGCCAACGUUCUCAACUAUGACACGCAAAACGCGUGCUCCGUUUAAUGGAGUUUAUCAUG [C85G G136U],≤ -4.2
13,GGAUCUUCUCGAUCUAACAAAAAAGACAAAUCUGCCACAAAGCUUGAGAGCAUCUUCGGAUGCAGAGGCGGCAGCCUUCGGUGGGGCGAUAGCGCCAACGUUCUCAACUAUGACACGCAAAACGCGUGCUCCGUUGAAUGAAGUUUAUCAUG [C85G G141A],-2.85
14,GGAUCUUCUCGAUCUAACAAAAAAGACAAAUCUGCCACAAAGCUUGAGAGCAUCUUCGGAUGCAGAGGCGGCAGCCUUCGGUGGGGCGAUAGCGCCAACGUUCUCAACUAUGACACGCAAAACGCGUGCUCCGUUGAAUGGAUUUUAUCAUG [C85G G143U],-3.79
15,GGAUCUUCUCGAUCUAACAAAAAAGACAAAUCUGCCACAAAGCUUGAGAGCAUCUUCGGAUGCAGAGGCGGCAGCCUUCGGUGGGGCGAUAGCGCCAACGGUCUCAACUAUGACACGCAAAACGCGUUCUCCGUUGAAUGGAGUUUAUCAUG [C85G U101G G128U],-4.03
16,GGAUCUUCUCGAUCUAACAAAAAAGACAAAUCUGCCACAAAGCUUGAGAGCAUCUUCGGAUGCAGAGGCGGCAGCCUUCGGUGGGGCGAUAGCGCCAACGUCCUCAACUAUGACACGCAAAACGCGUGCUCCGUUGAAUGUAGUUUAUCAUG [C85G U102C G141U],-3.43
17,GGAUCUUCUCGAUCUAACAAAAAAGACAAAUCUGCCACAAAGCUUGAGAGCAUCUUCGGAUGCAGAGGCGGCAGCCUUCGGUGGGGCGAUAGCGCCAACGUUCUCAACUAUGACACGCAAAACGCGUGCUCCGAUGAAUGGAGUUUAUCAUG [C85G U134A],-3.86
18,GGAUCUUCUCGAUCUAACAAAAAAGACAAAUCUGCCACAAAGCUUGAGAGCAUCUUCGGAUGCAGAGGCGGCAGCCUUCGGUGGGGCGAUAGCGCCAACGUUCUCAACUAUGACACGCAAAACGCGUGCUCCGUGGAAUGGAGUUUAUCAUG [C85G U135G],≤ -4.2
19,GGAUCUUCUCGAUCUAACAAAAAAGACAAAUCUGCCACAAAGCUUGAGAGCAUCUUCGGAUGCAGAGGCGGCAGCCUUCGGUGGGGCGAUAGCGCCAACGUUCUCAACUAUGACACGCAAAACGCGUGCUCCGUUGAAUGGAGUUUACCAUG [C85G U148C],≤ -4.2
